Experimental data taken from PMC12136788.
The other results are listed elsewhere or left out.

T1: UNK ZnF1-3 (human, UniProt Q9C0B0 31-174)
T1 sequence: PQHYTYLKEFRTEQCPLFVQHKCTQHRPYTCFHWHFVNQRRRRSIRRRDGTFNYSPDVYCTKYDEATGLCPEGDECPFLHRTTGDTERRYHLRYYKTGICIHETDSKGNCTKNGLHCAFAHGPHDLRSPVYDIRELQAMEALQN

B1: chr11:86532819:86532820:-_ENSMUSG00000047126_ENSMUST00000103186|perfect_dup|motif|central (ssRNA)
RNA: GGGAGUUCUACAGUCCGACGAUCCAUGGCUCUGAGGCAUUCUAGGGAAUCUUCAACUGAUAAGGACCCAAAGUAAUUCACGGACCACUCAGGGUUAAGAAGAUGGGUAUGAACAACUGCACGUUUUAUGUCAUAUAAAUCGGUCAACAGAGGAUUGAGCAUCA
B2: 103228277_103235471_1382_CDS_ENSMUSG00000041781_ENSMUST00000047357|mouse|control|control (ssRNA)
RNA: GGGAGUUCUACAGUCCGACGAUCGUCUGCCUCUUUCGACUGCUCCAGUUUCUUAGCAGCUUCUUUCUUGAGUUUUUCUUUUUCCACAUAUUCCUCAAGUUCUUUCCCUUCAAGCUUCACACGUUUCCUCAGCUCGAUUUCUGUCAACAGAGGAUUGAGCAUCA
B3: 16701290_16701410_3608_CDS_ENSG00000145555_ENST00000513610|human|control|control (ssRNA)
RNA: GGGAGUUCUACAGUCCGACGAUCGGACUCGCCGCUGGAGGAGUUGUGUAGGCUCCCGGAGUCCUGCACUGAUGGGGCGAGCAGCACCGUGCUGUCCGCACUGGGGCUGGUGGGCACCACCGUGUCGUUCAUGUAUGGGUCCUCCAACAGAGGAUUGAGCAUCA
B4: chr1:163112212:163112213:-_ENSG00000143248_ENST00000313961|hu_hu|hu_hu_hu_mus_False|38_108 (ssRNA)
RNA: GGGAGUUCUACAGUCCGACGAUCUUUAUUUAUCCAGAAGAGUGAGUUACAUACUAGGCAAAGUAUUGGAUACAAUAAUCAGGAAACAAACACUAUUUUUCUUGAAUUUAAAACUUUAUGAGCGAAGUGCUGGCACAGGACUUACAACAGAGGAUUGAGCAUCA
B5: chr11:54532201:54532202:-_ENSMUSG00000052298_ENSMUST00000064104|mus_mus|FALSE|FALSE (ssRNA)
RNA: GGGAGUUCUACAGUCCGACGAUCCAAUCAAUCAAAGGCAGUUAGAUAGUAAGCAAAGUGGACCGCAGGAUCCAGCUACCUAUACUCAGCAGGGAAGAGGAACAGAAUGGGACCUGAGCAAAGGCCUCUUACUAACCACAGAGUCAACAGAGGAUUGAGCAUCA
B6: chr2:115890611:115890612:-_ENSMUSG00000027210_ENSMUST00000102538|mus_mus|motif|central (ssRNA)
RNA: GGGAGUUCUACAGUCCGACGAUCCAAUAAACUCCUGGAUGUGUCGUAUAUUUAAUAUCCCAGUCCGGAUAAGAAAGUGAGCGGGGUUGAAGAGUCCUUUUUUUCCAAACCAAGGAGACUUCUCCCAAUUUUCCAAUGUUAUUUCAACAGAGGAUUGAGCAUCA
B7: chr2:119839360:119839361:+_ENSMUSG00000033902_ENSMUST00000066058|mus_hu|FALSE|FALSE (ssRNA)
RNA: GGGAGUUCUACAGUCCGACGAUCGCCAUCAGCACAGCCACAGAAGAUGUAGUCUUGGCUCACAGAGAUGCAGUGGGCCACUGUGGUCCUCAGCUCCACCCACUUGUCCAAAAGCCUUCGAUCACUGAACUCGCACAGCAGCCCCAACAGAGGAUUGAGCAUCA
B8: chr9:139297273:139297274:-_ENSG00000165689_ENST00000371725|hu_mus|FALSE|FALSE (ssRNA)
RNA: GGGAGUUCUACAGUCCGACGAUCGGUGGCAGGUAGAGCGUCUCAAGAGUCCACCUCAUCUUUAACUUCACUAAUUCUGUCGAUAGACUUGAGGAUUUCAGCAACAAGGUUCAGUGUGUCUGCCCCAGACACCAGCUGCUUUAUCAACAGAGGAUUGAGCAUCA
B9: chr5:132424114:132424115:+_ENSG00000170606_ENST00000304858|hu_hu|FALSE|FALSE (ssRNA)
RNA: GGGAGUUCUACAGUCCGACGAUCACCGAAAAAUUUGCUGAUCUUCUCUUUUACCGCAGGGAUUCGUGUAGCACCACCAACUAUCUCCACUGCAUAAAUAUCUUCUUUCUUUAACUUGGUUUGUUCCAAAACACUACGAAGUGGCAACAGAGGAUUGAGCAUCA
B10: chr11:32953859:32953860:+_ENSG00000060749_ENST00000399302|hu_mus|FALSE|FALSE (ssRNA)
RNA: GGGAGUUCUACAGUCCGACGAUCAUCUCGAACUGAACUACAGGAUAAAGACGACUGCCUGGAUGGUUCCUGAAAAUUACCAAUACUUGCACUUGAUAGGUAGCUAUGUAAGGGAUGCUGUGAACCAGUCAGUUGUGCCUGAAUCAACAGAGGAUUGAGCAUCA
B11: chr5:43291141:43291142:-_ENSG00000112972_ENST00000433297|hu_hu|FALSE|FALSE (ssRNA)
RNA: GGGAGUUCUACAGUCCGACGAUCGUCAUCCAGGCUCCAUGUCAGUCACAUAAAAAUUUACAUAACAUGUAAUCCUUUAAAAUUAUCCCCAGAUAUCCCAUUCCUCCAACUGUUCCCAUACCCCCACCCCAUGCCCACCCCACCCAACAGAGGAUUGAGCAUCA
B12: chr2:160855017:160855018:-_ENSMUSG00000057133_ENSMUST00000039782|mus_hu|motif|central (ssRNA)
RNA: GGGAGUUCUACAGUCCGACGAUCAUCCUUUUCGAGCUCUUCCAUUGUGGCCCAUUUACAAUGUAAGUAGGAAAAAUUUCGGUACUUAACGUAGAACAGCUCCAAGUCGAACGGAGGUUCUCCUGGGUGAACCUCCUGGACAGUCAACAGAGGAUUGAGCAUCA
B13: chr3:179287964:179287965:+_ENSG00000136518_ENST00000429709|hu_hu|hu_hu_hu_mus_True|28_48 (ssRNA)
RNA: GGGAGUUCUACAGUCCGACGAUCCUUGAGUGGUGAGAUGGCCUCCAUGUUCUCCCUGGGCACGCGGAGGGCAUUGGUGUCUAUGUAGUAGGUGGGACCGCCCUGCUUGCCUUUAUCACCAUCAAUCUCCAUCAUUGUACUUCCCAACAGAGGAUUGAGCAUCA
B14: chrX:20248820:20248821:+_ENSMUSG00000001924_ENSMUST00000001989|mus_mus|mus_mus_mus_hu_True|8_78 (ssRNA)
RNA: GGGAGUUCUACAGUCCGACGAUCGGCGAAGUCCGUCACCACAAAGUCAGGUUCUGCCAGUGAUGCUACCAAGGAUUUAAAGCUAAUCUUCUUAGGUACUUUGACCUGACUGACGAUGCCUCCACGGAUGUAGUCAGAGAAGUUCAACAGAGGAUUGAGCAUCA
B15: chr5:122941739:122941740:-_ENSMUSG00000029467_ENSMUST00000031423|mus_mus|motif|central (ssRNA)
RNA: GGGAGUUCUACAGUCCGACGAUCUCUUUCCUGCCACACACCCACGAUUGCAUUGGCUACCAAGAUAAGCAGAAUUACAAACGGCUCGGCAAAGGCUGUAAUCGUUUCUUCCCCUUCCUCGAACCAAGCCAAAACGAAAGAUAUCAACAGAGGAUUGAGCAUCA
B16: chr5:61681977:61681978:+_ENSG00000068796_ENST00000381103|hu_mus|motif|central (ssRNA)
RNA: GGGAGUUCUACAGUCCGACGAUCCACUGUCACAGACUUUAGUUCCGUUCAAUUGAUAUGGCACAUCCUGCAAAAUUAACGGGUCACACACAAAAAAAUGUCUCAAAUACAGUAAAAAUGUACACACAGUAAAGGUAAUUUACACAACAGAGGAUUGAGCAUCA
B17: chr14:66974463:66974464:+_ENSMUSG00000022044_ENSMUST00000074523|mus_hu|mus_mus_mus_hu_False|18_78 (ssRNA)
RNA: GGGAGUUCUACAGUCCGACGAUCUUGUAGGACGACUUAUUCAGGGGAUCGGCCAGGAAGCAAGAGCAGAACAAGGACACCAGCGGGAGCUCCUUCAUCUUCUCUUUGUAGGCAGCAAGAGUCAUGUUUCUGGGAUCUGGUGGCCAACAGAGGAUUGAGCAUCA
B18: chr2:219525992:219525993:+_ENSG00000074582_ENST00000359273|hu_hu|FALSE|FALSE (ssRNA)
RNA: GGGAGUUCUACAGUCCGACGAUCAAUCCAUUUCCCCCGAUACCAGAUAAAAUGGUUUCCAGGGCUGGGGACAAAUUCAAACUUAGUGGAAAUGCGGCCACUCUCAUGCUGAAGGUACGAAGUCUCGACACUGAGGUGCUGAGUCAACAGAGGAUUGAGCAUCA
B19: chr6:40197388:40197389:+_ENSMUSG00000057716_ENSMUST00000061740|mus_mus|mus_mus_mus_hu_False|18_88 (ssRNA)
RNA: GGGAGUUCUACAGUCCGACGAUCGAGACACUGGGGUGGAUUUAUUCUCAGUUUGGGUGGGUGCUAGCCACUAAGACUGUUAUUUUGGGAUUCAUGGCCUUGAAUAUCAAGAGGGAAGGGACGAGAAUGGAAAGAGUCAAGAGUCAACAGAGGAUUGAGCAUCA
B20: chr3:193353255:193353256:+_ENSG00000198836_ENST00000392438|hu_mus|FALSE|FALSE (ssRNA)
RNA: GGGAGUUCUACAGUCCGACGAUCAAUCAAAGAUUUCUUGAGCUUCCUGUGGUGGAUGCCUUUGUCGUCCUUCUGCAGCACCAGCUUCCGCAGCUCUUUGUUCUCCUUUUCCAGGCGCUCCAAGAUCCUCUGAUACUUUAACUGCAACAGAGGAUUGAGCAUCA
B21: 37595425_37596737_584_3pUTR_ENSG00000125686_ENST00000300651|human|control|control (ssRNA)
RNA: GGGAGUUCUACAGUCCGACGAUCCUGUACAAGCUCCGGACAGCUCACAGGAUUCUCCCCAUGGUGAGCCACUUUUACAUCACAAAGCUGUCCUGCAGGAUCUAACUGCACUUCCACAUAGAACAUAUCUGACGUGAUGUAACACAACAGAGGAUUGAGCAUCA
B22: chr9:50413139:50413140:+_ENSMUSG00000039016_ENSMUST00000044051|mus_mus|motif|central (ssRNA)
RNA: GGGAGUUCUACAGUCCGACGAUCGAUCUGGGCAAACCGACCGGUGAUGGCAAGAGUAGUGUCAAUGAAGCGAUCCACACAGCGGGAGAGGCAGUUUUCAGUGCGGGAGUCUAGCCGACUUCCUGGCUUCUCCACACACUUAUCCAACAGAGGAUUGAGCAUCA

Biological target: T1, UNK ZnF1-3
Assay: nsRBNS (natural sequence RNA bind-n-seq); RBNS binding buffer (assumed for nsRBNS): 25 mM Tris pH 7.5, 150 mM KCl, 3 mM MgCl2, 0.01% Triton X-100, 500 ug/ml BSA, 20 U/ml SUPERase-In, 4 C; UNK is unkempt and MSI1 is Musashi-1; names of the RNAs are library labels; protein concentration not given here; high values mean tight binding

| Binder | binding signal [enrichment R] |
| --- | --- |
| B1 | 1.08 |
| B2 | 0.166 |
| B3 | 0.847 |
| B4 | 2.13 |
| B5 | 1.3 |
| B6 | 0.778 |
| B7 | 1.21 |
| B8 | 1.43 |
| B9 | 0.919 |
| B10 | 0.822 |
| B11 | 1.52 |
| B12 | 0.589 |
| B13 | 0.63 |
| B14 | 1.02 |
| B15 | 1.35 |
| B16 | 1.34 |
| B17 | 2.12 |
| B18 | 1.11 |
| B19 | 1.62 |
| B20 | 0.512 |
| B21 | 0.74 |
| B22 | 1.55 |
